# PubChem BioAssay (NCATS)
# The inconclusive results got no clear call from the source; some entries with a clear call stand among them for comparison. For some of these results: Where the call is inconclusive, the potency comes from a doubtful curve fit. The source made the active and inactive calls. Unless noted, calls come from the whole dose curve; as a rule, active = well fitted curve in the direction sought with a large enough effect; inconclusive = small, poorly fitted or top-dose-only effect, or another doubt; inactive = no such curve, though single readings can be large; an effect the other way counts as inactive or inconclusive.
# Legend:
# [1] = qHTS to identify inhibitors of the type 1 interferon - major histocompatibility complex class I in skeletal muscle: primary screen against the NCATS Pharmaceutical Collection (AID 1347407); details: human skeletal muscle cells, IFN-b-induced MHC-I HiBiT luminescence, 24 h; series mostly up to 45.9 µM;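 note: luminescence of HiBiT knocked into endogenous HLA-B as interferon-induced MHC class I level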; note: potency is the fitted concentration of half-maximal effect; for activity change, negative = inhibition: % is set by controls: 0 for no effect and ±100 for the full control effect
# Method in brief: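 HLA-B HiBiT myoblasts, dexamethasone-free growth medium + 4 ng/ml IFN-b; compounds pinned 1 h after seeding, […] from 46 uM; 24 h, 37 C, 5% CO2; lytic HiBiT detection, 10 min RT, luminescence.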
# [2] = qHTS of pediatric cancer cell lines to identify multiple opportunities for drug repurposing: Primary screen for TC32 cells (AID 1347089); details: TC32 Ewing sarcoma viability, CellTiter-Glo luminescence, 48 h; at 45.8 µM (top of the series); note: % is set by controls: 0 for no effect and ±100 for the full control effect; nearly all actives have a fitted effect of over 60% in size
# Method in brief: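 In the primary qHTS, MIPE compounds were tested at 11 concentrations (0.78 nM to 46 µM) and NPC compounds at 8 (0.59 nM to 46 µM) on TC32 cells for 48 h. CellTiter-Glo luminescence gave viability.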
# [3] = qHTS of pediatric cancer cell lines to identify multiple opportunities for drug repurposing: Confirmatory screen for A673 cells (AID 1347110); details: A673 Ewing sarcoma cell viability; series mostly up to 45.9 µM;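 note: cells exposed to compound for 48 h before the viability read; nearly all actives have a fitted effect of over 65% in size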; note: potency is the fitted concentration of half-maximal effect;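 for activity change, negative = cytotoxicity: plate controls were DMSO neutral control for no effect and bortezomib positive control for full effect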
# Method in brief: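 Concentration-response curves came straight from titrations: 11 points (0.78 nM to 46 µM) for MIPE and several concentrations (0.59 nM to 46 µM) for NPC in primary, 11 points in follow-up. Readout: ATP luminescence at 48 h.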
# [4] = qHTS of pediatric cancer cell lines to identify multiple opportunities for drug repurposing: Confirmatory screen for NB-EBc1 cells (AID 1347115); details: NB-EBc1 neuroblastoma cells, viability (cytotoxicity); series mostly up to 45.9 µM;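 note: cells exposed to compound for 48 h before the viability read; nearly all actives have a fitted effect of over 45% in size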; note: potency is the fitted concentration of half-maximal effect; for activity change, negative = cytotoxic: % is set by controls: 0 for no effect and ±100 for the full control effect
# Method in brief: (§1)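 Cells (500-1,000/well) rested 5 h, then received compounds for 48 h; metabolically active cells were measured by CellTiter-Glo luminescence. Final concentrations spanned up to 46 µM (MIPE, 11-point) or 0.59 nM-46 µM (NPC, 8-point) in primary screens, 11-point in follow-ups.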
# [5] = qHTS of pediatric cancer cell lines to identify multiple opportunities for drug repurposing: Confirmatory screen for BT-37 cells (AID 1347117); details: BT-37 pediatric cancer cells, viability; note: potency is the fitted concentration of half-maximal effect; nearly all actives have a fitted effect of over 55% in size
# Method in brief: as §1
# [6] = qHTS of pediatric cancer cell lines to identify multiple opportunities for drug repurposing: Confirmatory screen for control Hh wild type fibroblast cells (AID 1347121); details: viability qHTS; series mostly up to 45.9 µM; note: nearly all actives have a fitted effect of over 70% in size; note: potency is the fitted concentration of half-maximal effect
# Method in brief: as §1
# [7] = qHTS of pediatric cancer cell lines to identify multiple opportunities for drug repurposing: Confirmatory screen for Rh30 cells (AID 1347126); details: Rh30 rhabdomyosarcoma cell viability; note: potency is the fitted concentration of half-maximal effect; nearly all actives have a fitted effect of over 55% in size
# Method in brief: as §1
# [8] = qHTS of pediatric cancer cell lines to identify multiple opportunities for drug repurposing: Confirmatory screen for Saos-2 cells (AID 1347127); details: Saos-2 osteosarcoma cell viability; note: potency is the fitted concentration of half-maximal effect; nearly all actives have a fitted effect of over 60% in size
# Method in brief: as §1
# [9] = Quantitative High-Throughput drug screen in 47 multiple myeloma cell lines against the NCATS MIPE library collection: XG1_PLB cell viability assay (AID 1919866); details: CellTiter-Glo ATP, 48 h; series mostly up to 23.2 µM; note: nearly all actives have a fitted effect of over 35% in size; note: potency is the fitted concentration of half-maximal effect
# Method in brief: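 Plated at 500 cells per well, myeloma lines received MIPE 4.0 compounds by pin tool. Following 48 h culture at 37 °C, CellTiter-Glo luminescence gave viability relative to DMSO and media-only controls.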
# [10] = qHTS of pediatric cancer cell lines to identify multiple opportunities for drug repurposing: Confirmatory screen for SK-N-MC cells (AID 1347111); details: SK-N-MC cell viability;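 note: potency is the fitted concentration of half-maximal effect; cells exposed to compound for 48 h before the readout; nearly all actives have a fitted effect of over 70% in size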
# Method in brief: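 Seed 500-1,000 cells/well; rest 5 h at 37 degrees C. Pin-transfer compounds, 11-point titration. Incubate 48 h. Add CellTiter-Glo, 15 min RT, read luminescence.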
# [11] = qHTS of pediatric cancer cell lines to identify multiple opportunities for drug repurposing: Confirmatory screen for SJ-GBM2 cells (AID 1347116); details: SJ-GBM2 glioblastoma cells, viability; series mostly up to 45.9 µM; note: nearly all actives have a fitted effect of over 60% in size; note: potency is the fitted concentration of half-maximal effect;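 for activity change, negative = cytotoxic: plate controls were DMSO for no effect and bortezomib for full effect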
# Method in brief: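 Viability measured as metabolically active cells via CellTiter-Glo luminescence following 48 hours of compound exposure, 11-point dilutions in confirmatory testing. 500-1,000 cells/well plated 5 hours before dosing; controls were DMSO and 2.3 µM bortezomib.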
# [12] = qHTS of pediatric cancer cell lines to identify multiple opportunities for drug repurposing: Confirmatory screen for U-2 OS cells (AID 1347122); details: U-2 OS osteosarcoma cell viability; at 45.9 µM (top of the series);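 note: plate controls were DMSO for no effect and bortezomib for full effect; nearly all actives have a fitted effect of over 65% in size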
# Method in brief: as §1
# [13] = qHTS of pediatric cancer cell lines to identify multiple opportunities for drug repurposing: Confirmatory screen for OHS-50 cells (AID 1347128); details: OHS-50 osteosarcoma cells viability; at 45.9 µM (top of the series);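 note: compound exposure lasted 48 h at 37 degrees C; % is set by controls: 0 for no effect and ±100 for the full control effect; nearly all actives have a fitted effect of over 55% in size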
# Method in brief: as §1
# [14] = biological target: ATPase family AAA domain-containing protein 5 (Homo sapiens) (UniProt Q96QE3); assay: Validation screen for small molecules that inhibit ELG1-dependent DNA repair in human embryonic kidney (HEK293T) cells expressing luciferase-tagged ELG1 (AID 493107); details: HEK293T ELG1-luciferase level, luminescence, 5-fluorouridine co-treatment, 16 h; activity change, negative = decrease: at 46.1 µM (top of the series);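 note: cells co-treated with the DNA-damaging agent 5-fluorouridine alongside compound; % is set by controls: 0 for no effect and ±100 for the full control effect; inhibitors lower the ELG1-luciferase luminescence signal; nearly all actives have a fitted effect of over 70% in size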
# UniProt Q96QE3, sequence (Q96QE3 whole entry, looked up, the tested form may be a part): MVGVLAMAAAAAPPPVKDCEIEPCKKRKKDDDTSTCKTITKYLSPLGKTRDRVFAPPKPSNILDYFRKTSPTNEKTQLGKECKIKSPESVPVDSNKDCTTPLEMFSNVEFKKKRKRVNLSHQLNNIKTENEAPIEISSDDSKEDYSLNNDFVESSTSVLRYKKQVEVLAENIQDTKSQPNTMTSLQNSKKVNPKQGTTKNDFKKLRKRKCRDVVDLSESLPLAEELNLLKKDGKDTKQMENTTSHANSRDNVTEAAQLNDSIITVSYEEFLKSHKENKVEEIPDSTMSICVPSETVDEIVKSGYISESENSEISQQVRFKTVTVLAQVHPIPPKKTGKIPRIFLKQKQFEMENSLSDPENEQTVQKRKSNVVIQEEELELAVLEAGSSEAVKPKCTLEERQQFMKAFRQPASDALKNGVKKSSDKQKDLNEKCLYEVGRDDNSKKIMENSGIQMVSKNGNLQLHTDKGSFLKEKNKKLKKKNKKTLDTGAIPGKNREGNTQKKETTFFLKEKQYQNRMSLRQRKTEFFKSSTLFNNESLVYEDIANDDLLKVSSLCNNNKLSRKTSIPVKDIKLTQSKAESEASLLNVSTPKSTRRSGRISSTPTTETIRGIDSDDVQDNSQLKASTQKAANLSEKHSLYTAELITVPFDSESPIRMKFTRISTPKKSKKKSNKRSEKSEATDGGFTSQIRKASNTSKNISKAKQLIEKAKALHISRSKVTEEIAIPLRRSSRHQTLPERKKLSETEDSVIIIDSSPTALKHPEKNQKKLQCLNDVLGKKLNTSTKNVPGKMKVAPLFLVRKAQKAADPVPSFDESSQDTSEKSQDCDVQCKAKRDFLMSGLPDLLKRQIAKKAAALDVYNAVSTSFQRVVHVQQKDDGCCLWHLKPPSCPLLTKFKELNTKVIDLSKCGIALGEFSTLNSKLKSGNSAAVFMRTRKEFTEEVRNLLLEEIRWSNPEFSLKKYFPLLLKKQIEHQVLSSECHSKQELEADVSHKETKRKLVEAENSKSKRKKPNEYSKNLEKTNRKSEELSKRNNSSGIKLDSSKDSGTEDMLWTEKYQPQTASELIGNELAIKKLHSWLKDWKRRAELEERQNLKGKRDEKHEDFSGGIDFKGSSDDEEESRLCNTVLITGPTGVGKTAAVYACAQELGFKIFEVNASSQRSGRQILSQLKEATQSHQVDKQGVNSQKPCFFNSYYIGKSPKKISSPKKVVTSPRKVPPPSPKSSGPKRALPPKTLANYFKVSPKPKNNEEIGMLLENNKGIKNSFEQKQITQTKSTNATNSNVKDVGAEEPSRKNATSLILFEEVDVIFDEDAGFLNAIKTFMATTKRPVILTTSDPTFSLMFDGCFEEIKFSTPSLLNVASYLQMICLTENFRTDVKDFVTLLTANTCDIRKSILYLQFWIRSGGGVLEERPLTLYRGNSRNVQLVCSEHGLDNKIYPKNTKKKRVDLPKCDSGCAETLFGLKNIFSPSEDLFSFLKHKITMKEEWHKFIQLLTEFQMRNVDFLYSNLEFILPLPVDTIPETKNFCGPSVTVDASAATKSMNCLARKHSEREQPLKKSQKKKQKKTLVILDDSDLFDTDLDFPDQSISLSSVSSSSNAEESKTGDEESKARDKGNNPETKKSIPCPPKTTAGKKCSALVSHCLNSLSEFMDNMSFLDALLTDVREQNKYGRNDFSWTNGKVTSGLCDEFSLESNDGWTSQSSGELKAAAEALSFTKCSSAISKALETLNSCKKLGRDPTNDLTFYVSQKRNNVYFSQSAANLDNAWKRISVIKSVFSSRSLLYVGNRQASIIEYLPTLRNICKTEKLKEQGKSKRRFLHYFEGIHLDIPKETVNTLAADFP
# Method in brief: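 Quantitative HTS in HEK293T cells carrying luciferase-tagged ELG1, stimulated with 5-fluorouridine alongside compound for 16 hr. Loss of luciferase signal marks inhibition of ELG1 response.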
# [15] = qHTS for Activators of Parkin Expression: LOPAC Validation Assay (FLuc Reporter) (AID 720573; note: potency is the fitted concentration of half-maximal effect); details: Cell line, PRKN promoter firefly luciferase reporter; series mostly up to 46.1 µM
# Method in brief: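 FLuc luminescence read-out from a neuronal line expressing a Parkin-promoter-driven coincidence reporter. Cells treated 24 h at 37 C, 5% CO2 with compounds at 7 concentrations; signal increase normalized to DMSO and positive control.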
# [16] = qHTS Assay for Modulators of Human Peripheral Myelin Protein 22 (PMP22) Expression/Activity (AID 1967; active = well fitted curve in the direction sought with a large enough effect in the signal ratio; inconclusive = small, poorly fitted or top-dose-only effect, or effect the other way, or a change in a side signal; inactive = no such curve, though single readings can be large or run the other way; the % refers to the signal ratio; note: potency is the fitted concentration of half-maximal effect;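 for activity change (ratio): 0% = untreated cells and 100% end not stated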); details: Cell-based PMP22 reporter, dual-color luciferase ratio, mouse Pmp22 promoter in mouse Schwann cells; activity change (ratio): at 115 µM (top of the series), 0% = compound-free control cells
# Method in brief: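 Mouse MSC80 Schwann line, Pmp22 promoter–CBG68 reporter, EF-alpha–CBR internal control. 24h compound exposure, 37 °C/5% CO2, DMEM + 10% FBS. Readout: corrected green/red luminescence ratio, normalized to untreated cells; concentration-response curves fitted and classified.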
# [17] = biological target: D(1A) dopamine receptor (Homo sapiens) (UniProt P21728); assay: HTS Assay for Allosteric Agonists of the Human D1 Dopamine Receptor: Primary Screen for Antagonists (AID 488983); details: D1 receptor cell assay, antagonist mode, qHTS titration; series mostly up to 41.8 µM;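 note: calcium flux response to an EC80 dopamine challenge measured with no-wash dye; potency is the fitted concentration of half-maximal effect; nearly all actives have a fitted effect of over 65% in size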
# UniProt P21728, sequence (P21728 whole entry, looked up): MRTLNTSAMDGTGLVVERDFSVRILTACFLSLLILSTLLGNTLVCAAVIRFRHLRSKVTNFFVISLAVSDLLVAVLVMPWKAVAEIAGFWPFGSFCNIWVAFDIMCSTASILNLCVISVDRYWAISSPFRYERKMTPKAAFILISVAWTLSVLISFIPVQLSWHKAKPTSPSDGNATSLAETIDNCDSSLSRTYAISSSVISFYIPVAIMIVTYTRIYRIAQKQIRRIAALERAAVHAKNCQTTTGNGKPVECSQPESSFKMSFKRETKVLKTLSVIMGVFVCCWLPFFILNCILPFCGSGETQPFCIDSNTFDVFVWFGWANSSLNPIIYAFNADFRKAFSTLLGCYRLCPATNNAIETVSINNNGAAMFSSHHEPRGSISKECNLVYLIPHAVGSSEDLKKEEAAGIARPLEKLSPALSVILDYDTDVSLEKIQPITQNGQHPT
# Method in brief: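 Screening of inducible HEK293 T-REx D1 cells: compound first, EC80 dopamine 180 s later, each phase read kinetically for calcium over 180 s.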
# [18] = qHTS of pediatric cancer cell lines to identify multiple opportunities for drug repurposing: Primary screen for U-2 OS cells (AID 1347096); details: U-2 OS viability, CellTiter-Glo luminescence, 48 h; at 46 µM (top of the series);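 note: plate controls were DMSO wells for no effect and bortezomib positive control wells for full effect; nearly all actives have a fitted effect of over 50% in size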
# Method in brief: as §1
# [19] = biological target: Flap endonuclease 1 (Homo sapiens) (UniProt P39748); assay: qHTS Validation Assay for the Inhibitors of Human Flap endonuclease 1 (FEN1) (AID 488816); details: FEN1 nuclease activity, fluorogenic DNA substrate; series mostly up to 57.1 µM; note: % is set by controls: 0 for no effect and ±100 for the full control effect
# UniProt P39748, sequence (P39748 whole entry, looked up): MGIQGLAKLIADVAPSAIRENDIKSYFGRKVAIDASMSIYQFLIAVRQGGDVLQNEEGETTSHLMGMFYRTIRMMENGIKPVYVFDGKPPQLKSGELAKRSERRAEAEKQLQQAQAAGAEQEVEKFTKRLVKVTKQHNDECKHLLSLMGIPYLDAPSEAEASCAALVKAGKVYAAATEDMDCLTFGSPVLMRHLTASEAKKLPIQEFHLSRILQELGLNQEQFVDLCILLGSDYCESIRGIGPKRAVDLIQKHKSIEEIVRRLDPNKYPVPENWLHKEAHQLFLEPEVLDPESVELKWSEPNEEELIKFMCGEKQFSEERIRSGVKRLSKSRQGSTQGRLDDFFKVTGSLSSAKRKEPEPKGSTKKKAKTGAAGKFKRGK
# Method in brief: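 Readings taken at 0 and 15 min after starting the reaction with 50 nM (final) substrate supplied the signal. Compounds had first sat with 10 nM FEN1 reagent for 15 min at room temperature. Values come from Hill-equation concentration-response fits.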
# [20] = biological target: Protein phosphatase 1D (Homo sapiens) (UniProt O15297); assay: Rhodamine-PBP qHTS Assay for Modulators of WT P53-Induced Phosphatase 1 (WIP1) (AID 1347425); details: recombinant WIP1, Rhodamine-PBP phosphate fluorescence, real-time; at 57.5 µM (top of the series); note: % of control where 0% means no effect
# UniProt O15297, sequence (O15297 whole entry, looked up): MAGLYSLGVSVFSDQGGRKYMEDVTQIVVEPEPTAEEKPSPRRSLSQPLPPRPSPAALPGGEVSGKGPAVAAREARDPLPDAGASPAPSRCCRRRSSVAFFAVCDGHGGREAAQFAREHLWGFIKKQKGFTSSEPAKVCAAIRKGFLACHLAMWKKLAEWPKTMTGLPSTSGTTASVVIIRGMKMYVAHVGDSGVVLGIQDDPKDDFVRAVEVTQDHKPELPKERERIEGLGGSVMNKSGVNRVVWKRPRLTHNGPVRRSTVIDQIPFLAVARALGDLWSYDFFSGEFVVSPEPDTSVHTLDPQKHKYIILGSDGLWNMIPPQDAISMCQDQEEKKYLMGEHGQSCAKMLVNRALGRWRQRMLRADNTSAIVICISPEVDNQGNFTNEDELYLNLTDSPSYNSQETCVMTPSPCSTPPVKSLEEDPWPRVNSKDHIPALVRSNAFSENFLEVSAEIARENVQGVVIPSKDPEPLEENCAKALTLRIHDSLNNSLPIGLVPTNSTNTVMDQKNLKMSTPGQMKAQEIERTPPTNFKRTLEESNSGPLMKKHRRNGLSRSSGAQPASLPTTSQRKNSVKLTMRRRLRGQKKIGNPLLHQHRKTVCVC
# Method in brief: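 5 nM WIP1 + 10 uM Rh-PBP, 50 mM Tris pH 7.5, 30 mM MgCl2, 1 mM TCEP, 0.1 mM EGTA, BSA; cpds pinned, 1 hr RT; + 10 uM phosphopeptide; fluorescence 1-min reads x 11 min; delta = f1 - f0.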
# Tags give direction and shape of the fitted curve.
smiles,measurement,setting,value
CC(C)C(=O)OCc1cccc(OC(=O)[C@@H]2N3C(=O)[C@@H](NC(=O)Cc4ccccc4)[C@H]3SC2(C)C)c1,Potency,[1],inactive
CC(=O)O[C@H]1C[C@@H]2CC[C@H]3[C@H]4C[C@H]([N+]5(C)CCCCC5)[C@@H](OC(C)=O)[C@@]4(C)CC[C@@H]3[C@@]2(C)C[C@H]1N1CCCCC1,"activity change, negative = cytotoxic",[2],inactive: 5.96%
same,Potency,[3],"inconclusive: 1.31 µM [cytotoxic, full curve]"
same,Potency,[4],"inconclusive: 20.8 µM [cytotoxic, partial curve, poor fit]"
same,Potency,[5],active: 3.29 µM
same,Potency,[6],"inconclusive: 20.8 µM [cytotoxic, single point]"
same,Potency,[7],active: 8.27 µM
same,Potency,[8],"inconclusive: 4.65 µM [cytotoxic, partial curve]"
same,Potency,[9],"inconclusive: 5.9 µM [cytotoxic, partial curve, poor fit]"
C[C@H]1C[C@@H]2[C@H]([C@@H](O)C[C@@]3(C)[C@H]2CC[C@]3(O)C(=O)CO)[C@@]2(C)C=CC(=O)C=C12,Potency,[3],inactive
same,Potency,[10],"inconclusive: 29.3 µM [cytotoxic, single point]"
same,Potency,[11],inactive
same,Potency,[5],"inconclusive: 23.3 µM [cytotoxic, single point]"
same,Potency,[6],inactive
same,"activity change, negative = cytotoxicity",[12],inactive: 12.5%
same,Potency,[7],"inconclusive: 36.9 µM [cytotoxic, single point]"
same,Potency,[8],"inconclusive: 36.9 µM [cytotoxic, single point]"
same,"activity change, negative = cytotoxic",[13],inactive: -25.9%
same,Potency,[1],"inconclusive: 0.0149 µM [inhibitor, full curve, poor fit]"
Nc1ncnc2c1nc(Sc1ccc(Cl)cc1)n2[C@H]1OC2COP(=O)(O)O[C@@H]2C1O (stereo not given in full),Potency,[14],inactive
same,Potency,[15],inactive
Nc1nc2c(cnn2CCc2ccccc2)c2nc(-c3ccco3)nn12,Potency,[14],inactive
same,Potency,[15],"inconclusive: 4.61 µM [activator, full curve]"
Cc1cccc(C(=O)NCN2CCN(c3ccccc3C#N)CC2)c1,Potency,[16],"inconclusive: 95.3 µM [cytotoxic, single point]"
same,Potency,[17],"inconclusive: 12.6 µM [inhibitor, partial curve, poor fit]"
CCCc1ncc(C(=O)O)s1,"activity change, negative = cytotoxic",[18],inactive: 10.8%
NCCS,Potency,[19],inactive
same,"activity change, negative = inhibition",[20],inactive: 3.48%
Nc1ccc(C(=O)O)cc1,"activity change, negative = inhibition",[20],inactive: 5.56%
O=C(Oc1ccccc1C(=O)O)c1ccccc1O,"activity change, negative = cytotoxic",[2],inactive: 17%
same,"activity change, negative = cytotoxic",[18],inactive: 10.1%
CN1[C@H]2CC(OC(=O)[C@@H](CO)c3ccccc3)C[C@H]1[C@H]1O[C@H]12 (stereo not given in full),Potency,[9],inactive
C[C@@H]1[C@H](O)[C@@H](C)C=CC=CC=CC=CC=CC=CC=C[C@H](O[C@@H]2O[C@H](C)[C@H](O)[C@H](N)[C@@H]2O)C[C@@H]2O[C@](O)(C[C@@H](O)C[C@@H](O)[C@H](O)CC[C@@H](O)C[C@@H](O)CC(=O)O[C@H]1C)C[C@H](O)[C@@H]2C(=O)O,Potency,[10],active: 10.4 µM
same,Potency,[4],inactive
same,Potency,[11],"inconclusive: 0.0117 µM [rising, full curve, poor fit]"
same,"activity change, negative = cytotoxicity",[12],inactive: 29.7%
same,"activity change, negative = cytotoxic",[13],inactive: -3.53%
CC(O)C(O)[C@H]1CNc2nc(N)[nH]c(=O)c2N1 (stereo not given in full),Potency,[19],inactive
O=C(O)c1ccccc1Nc1cccc(OCc2ccc3ccccc3n2)c1,Potency,[17],"inconclusive: 12.6 µM [inhibitor, single point]"
Cn1c(=O)c2[nH]c(-c3ccccc3)nc2n(C)c1=O,Potency,[16],inactive
